# Reference: article PMC4336329 (PLoS ONE, 2015)
# In all, about 310,000 compounds went through this assay and about 2,200 (0.71%) showed an effect of 50% or more. The effect is printed as a negative number. Some of the results follow.
# Target: human ether-à-go-go-related gene (hERG) potassium channel (human, UniProt Q12809)
# Experiment: primary screen, population patch clamp on CHO cells stably expressing hERG
# Chain of human ether-à-go-go-related gene (hERG) potassium channel (Q12809 whole entry, looked up): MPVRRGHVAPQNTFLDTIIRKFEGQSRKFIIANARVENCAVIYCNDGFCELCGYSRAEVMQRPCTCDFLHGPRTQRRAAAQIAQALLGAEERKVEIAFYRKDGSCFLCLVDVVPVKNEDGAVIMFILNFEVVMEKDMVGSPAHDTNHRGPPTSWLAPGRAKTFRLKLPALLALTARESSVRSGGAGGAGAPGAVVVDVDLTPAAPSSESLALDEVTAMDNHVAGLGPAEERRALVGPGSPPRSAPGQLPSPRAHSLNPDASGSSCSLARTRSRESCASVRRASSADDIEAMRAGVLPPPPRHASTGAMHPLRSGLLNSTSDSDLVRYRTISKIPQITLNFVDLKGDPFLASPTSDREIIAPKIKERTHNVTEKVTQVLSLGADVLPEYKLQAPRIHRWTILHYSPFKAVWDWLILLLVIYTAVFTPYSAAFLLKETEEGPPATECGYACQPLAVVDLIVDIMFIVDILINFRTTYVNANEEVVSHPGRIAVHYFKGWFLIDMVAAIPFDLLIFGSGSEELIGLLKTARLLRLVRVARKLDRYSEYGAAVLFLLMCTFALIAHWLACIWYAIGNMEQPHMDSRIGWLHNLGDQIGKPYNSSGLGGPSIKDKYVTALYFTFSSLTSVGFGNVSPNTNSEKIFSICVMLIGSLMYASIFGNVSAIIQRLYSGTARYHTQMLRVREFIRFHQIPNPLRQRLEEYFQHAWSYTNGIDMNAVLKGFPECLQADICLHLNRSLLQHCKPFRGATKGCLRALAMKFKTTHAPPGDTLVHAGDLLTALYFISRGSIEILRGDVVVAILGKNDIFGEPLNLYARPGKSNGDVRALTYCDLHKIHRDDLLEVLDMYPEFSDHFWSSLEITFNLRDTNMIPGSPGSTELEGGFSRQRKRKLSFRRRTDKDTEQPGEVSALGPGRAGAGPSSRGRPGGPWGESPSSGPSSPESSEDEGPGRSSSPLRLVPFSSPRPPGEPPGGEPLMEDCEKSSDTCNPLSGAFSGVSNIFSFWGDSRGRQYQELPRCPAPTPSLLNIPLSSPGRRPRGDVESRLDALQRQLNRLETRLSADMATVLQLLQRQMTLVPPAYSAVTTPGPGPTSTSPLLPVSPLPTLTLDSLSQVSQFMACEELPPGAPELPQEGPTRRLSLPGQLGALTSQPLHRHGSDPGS
row,Compound,"hERG current change (%, negative = inhibition) at 1uM [%]"
1,O=C(CN1C(=O)COc2ccccc21)N1CCOCC1,8.59
2,CN1/C(=C\C(=O)COC(=O)c2ccccc2O)C(C)(C)c2ccccc21,6.85
3,Cc1ccc(CNC(=O)CC(C)S(=O)(=O)c2ccc3c(c2)NC(=O)CO3)cc1 (stereo not drawn),-11
4,CS(=O)(=O)N(CC(=O)NCCSCc1cccc(Cl)c1)c1ccccc1F,2.83
5,COc1ccc(Cl)cc1-n1c(=S)sc2c(=O)n(-c3ccc(F)cc3)c(SCC(=O)O)nc21,1.64
6,COc1ccc(C2CC(=O)c3cnc(NC(=O)c4cc(OC)cc(OC)c4)nc3C2)cc1 (stereo not drawn),12.7
7,COc1ccc(OCC(=O)N(C)Cc2ccccc2)cc1,7.11
8,O=C(Nc1ccnn1C1CCN(C(=O)c2cnsn2)CC1)c1cccc(F)c1,8.19
9,COC(=O)c1ccc2c(=O)[nH]c(CN3c4ccccc4CC3C)nc2c1 (stereo not drawn),3.34
10,Cc1cc(C)nc(SCC(=O)c2ccc(Cl)cc2)n1,14.9
11,O=C(COc1ccccc1Cl)NCC(c1cccs1)N1CCOCC1 (stereo not drawn),2.47
12,CC(=O)c1ccccc1OCC(O)CN1CCN(C(c2ccccc2)c2ccccc2)CC1 (stereo not drawn),-15.6
13,O=C(COC(=O)c1ccco1)c1ccc2ccccc2c1,16.3
14,CCn1c(=O)c2sccc2n(CC(=O)NC2CCCC2)c1=O,9.2
15,COC(=O)c1ccc(C)c(NC(=O)CN(c2ccccc2)S(=O)(=O)N(C)C)c1,16.4
16,CCCN(CCC)C(=O)CC(c1ccccc1)c1cc(Br)ccc1O (stereo not drawn),11.3
17,NS(=O)(=O)c1ccc(CCNC(=O)COC(=O)/C=C/c2ccc(Cl)cc2)cc1,1.84
18,CCN(CC)S(=O)(=O)c1ccc(C)c(NC(=O)CN2C(=O)NC3(CCCC3)C2=O)c1,13.7
19,COc1ccc(CNS(=O)(=O)c2cc3c4c(c2)C(C)C(=O)N4CCC3)cc1 (stereo not drawn),6.59
20,CC(=O)NNc1ccc(C(F)(F)F)cc1[N+](=O)[O-],15.6
21,CCCc1ccc(OCC(=O)NNC(=S)NC(=O)c2ccco2)cc1,3.15
22,COc1ccccc1-c1nc(S(=O)(=O)c2ccc(Cl)cc2)c(N(C)C)o1,14.9

row,Compound,"hERG current change (%, negative = inhibition) at 1uM [%]"
1,COC(=O)c1ccc(C2C(Oc3ccccc3C)C(=O)N2CCc2ccc(OC)c(OC)c2)cc1 (stereo not drawn),8.46
2,O=C(NCCN1CCOCC1)c1cccc(S(=O)(=O)Nc2ccc(Br)cc2)c1,4.89
3,Cc1sc2ncnc(N(C)Cc3ccco3)c2c1C,8.66
4,O=C(COc1ccccc1[N+](=O)[O-])N/N=C/c1ccccn1,7.25
5,O=C(/C=C/c1ccc2c(c1)OCO2)Nc1nc(-c2ccccc2)cs1,8.24
6,Cc1cccc(C(=O)NC2CCN(CC(=O)Nc3ccc4c(c3)OCO4)CC2)c1,-28.7
7,Cn1cc(/C=C(\NC(=O)c2ccccc2Cl)C(=O)NCCN2CCOCC2)c2ccccc21,15.6
8,Cc1cnc[nH]1,0.776
9,COc1ccc(O)c(CN2CCN(CCCc3ccccc3)C(CCO)C2)c1 (stereo not drawn),-21.7
10,CCCC(=O)O/N=C(\c1ccccc1)c1ccncc1,13.4
11,Cc1ccccc1CCNC(=O)Cn1ccc2cc(S(=O)(=O)N3CCCC3)ccc21,13.2
12,CC(=O)N1CCN(CCN(CC2C(C)C=C(C)CC2C)C(C)=O)CC1 (stereo not drawn),1.37
13,CC(=O)NC1=NN(C(C)=O)C(C)(c2ccccn2)S1 (stereo not drawn),16.1
14,CC(C)(C)c1cc(C(=O)N/N=C/c2ccc(-c3ccccc3[N+](=O)[O-])o2)n[nH]1,8.04
15,O=C(COC(=O)c1cccc(O)c1)Nc1nnc(-c2ccccc2)o1,18.1
16,C[C@H](CCC(=O)NCC(=O)O)[C@H]1CC[C@H]2[C@@H]3[C@H](O)C[C@@H]4C[C@H](O)CC[C@]4(C)[C@H]3C[C@H](O)[C@]12C.O,11.8
17,O=C(CCC1CCCC1)Nc1ccccc1-c1ccccc1,8.84
18,CC1CCC(C(=O)NC(C(=O)N2CCC3(CC2)OCCO3)C(C)C)CC1 (stereo not drawn),0.523
19,COc1cccc(N(CC(=O)N2CCOCC2)S(C)(=O)=O)c1,20.9
20,Cc1ccc(C)c(N(CC(=O)NC2CCCC2)C(=O)c2cc3cc4cc(C)ccc4nc3s2)c1,7.39
21,Nc1c(C(=O)CSc2ccccn2)c(=O)[nH]c(=O)n1C1CC1,9.19
22,COc1ccc(/C=C/C(=O)O)cc1S(=O)(=O)N1CCc2ccccc21,6.26

row,Compound,"hERG current change (%, negative = inhibition) at 1uM [%]"
1,Cc1cc(/C=N/NC(=O)c2ccncc2)c(C)n1-c1ccccc1,19.9
2,C/C(=N\NC(=O)C(O)c1ccccc1)c1ccc(Cl)cc1 (stereo not drawn),20.7
3,Cc1nc2ccccc2c2c1CC(C)S2 (stereo not drawn),11
4,O=C(Oc1coc(CSc2ncccn2)cc1=O)c1cccs1,9.21
5,CCOC(=O)c1cnc2cc(C)nn2c1-c1ccccc1,13
6,COc1ccc(N2CC(C(=O)N3CCC(c4nc5ccccc5[nH]4)CC3)CC2=O)cc1 (stereo not drawn),4.23
7,CCN1CCN(c2cc(-c3ccccc3)nc3cc(-c4cccc(F)c4)nn23)CC1,0.799
8,NC(=O)c1ccc(SCC(=O)OCC(=O)N2CCCCC2)c([N+](=O)[O-])c1,10.2
9,O=C1CC(C(=O)N(CC2CCCO2)C(C(=O)NC2CCCCC2)c2ccncc2)CS1 (stereo not drawn),1.09
10,COC(=O)c1c(C)oc2ccc(N(C(=O)Oc3ccccc3)S(=O)(=O)c3ccc(Cl)c([N+](=O)[O-])c3)cc12,6.89
11,O=C(NC1CCCC1)c1ccc(CS(=O)(=O)c2ccc(Br)cc2)o1,-17
12,CCOCCOC(=O)C(C)Oc1ccc(Oc2nc(Cl)ccc2Cl)cc1 (stereo not drawn),12.7
13,Cc1ncsc1C(=O)N1N=C2/C(=C/c3ccc(N4CCOCC4)cc3)CCCC2C1c1ccc(N2CCOCC2)cc1 (stereo not drawn),6.41
14,CCCC(=O)Nc1nnc(C2CCCO2)s1 (stereo not drawn),2.41
15,CCOCCCn1c(C)nc2c(c1=O)c1nc3ccccc3nc1n2-c1ccc2c(c1)OCCO2,11.4
16,COCCn1c(SCC(=O)Nc2ccc(F)cc2)nc2ccccc2c1=O,-9.52
17,COc1cc(NC(=O)CSc2nnc(C)s2)cc(OC)c1,17.9
18,O=C(Nc1ccc(Cl)cc1C(=O)c1ccccc1)c1ccc(Br)o1,10.8
19,COC(=O)CCC(=O)Nc1ccc(S(=O)(=O)N2CCc3ccccc32)cc1,14.8
20,Cc1cc(C)nc(/N=C(\NC(=O)C(C)(C)C)Nc2ccc(F)cc2)n1,10.8
21,Cc1c(Cl)cccc1NC(=S)NCc1cccn1C,9.44
22,CC(Oc1ccc(Cl)cc1Cl)c1nc(-c2ccc(NC(=O)c3ccccn3)cc2)no1 (stereo not drawn),14.6

row,Compound,"hERG current change (%, negative = inhibition) at 1uM [%]"
1,Cn1nc(-c2ccc(C(=O)N3CCN(CCO)CC3)cc2)c2ccccc2c1=O,2.73
2,CC(CCc1ccc(O)cc1)NCc1ccc(Br)cc1 (stereo not drawn),-66.8
3,COc1cc(NC(=O)c2cc3ccccc3o2)c(OC)cc1Cl,15.6
4,COc1ccc(C2CC(C)(c3ccc(OC)cc3OC)Nc3ccccc3N2)c(OC)c1 (stereo not drawn),2.56
5,CC(=NC(C)c1ccccc1)c1c(O)[nH]c(=O)[nH]c1=O (stereo not drawn),5.75
6,O=C(O)c1nn(-c2cccc(Cl)c2)c(=O)cc1O,4.27
7,C=CCNc1nc(NCc2ccccc2)c(C#N)c2c1CN(C)CC2,-15.4
8,O=C(CN1CCc2[nH]c3ccccc3c2C1)N1CCCCC1,6.73
9,O=C(O)CCC(=O)NCc1c(Cl)cccc1Sc1ccc(Cl)cc1,8.17
10,CC(C)c1ccc(NC(=O)CSc2n[nH]c(=O)n2C2CC2)cc1,8.98
11,COc1ccc(CC(=O)NNC(=O)c2cccs2)cc1OC,4.46
12,N#Cc1c(N(CCO)CCO)nc(N)c2c(N)nc3c(c12)CC(=O)N3CC1CCCO1 (stereo not drawn),13.1
13,O=C(Nc1cccc(S(=O)(=O)N2CCOCC2)c1)c1ccc2ccccc2n1,5.96
14,COc1ccc(S(=O)(=O)N2CCN(C(=O)c3ccco3)CC2)cc1OC,12.2
15,COc1cccc(C2OC(=O)c3ccccc3N2C(C)=O)c1OC(C)=O (stereo not drawn),14.2
16,CCC(OC(=O)c1nsc(Cl)c1Cl)C(=O)NCc1ccco1 (stereo not drawn),13.1
17,CCCn1c(N)c(N(CCOC)C(=O)c2ccc(F)cc2)c(=O)[nH]c1=O,12.9
18,CCc1nnc(NC(=O)c2cc(S(=O)(=O)N3CCCCC3)ccc2C)s1,1.93
19,COc1cccc(/C=N/n2nnnc2N)c1O,6.86
20,CCOC(=O)c1sc2nc(N3CCOCC3)c3c(c2c1N)CC(C)(C)N(C)C3,10.6
21,CN(C)S(=O)(=O)c1ccc2c(c1)nc(CCC(=O)NCCc1ccc(Cl)cc1)n2C,-16.4
